# Data published in the supplement of paper PMC10126150.
# Values marked as one replicate rest on one cluster of the flow cell; about a third of the high ones do not repeat.
# Tested on: ATP
# Test: switch fluorescence ratio, 500 uM ATP over buffer (Cy3 cluster intensity, sum of 5 cycles each) (fold (ratio)); higher = stronger signal-on switching upon ATP binding; sequences stand for … in TCGTCGGCAGCGTCAGATGTGTATAAGAGACAGTTTTTTTTTTTTTTTTTTTTTTTTT…TC
# Conditions: aptamer strand: ATP DNA aptamer (quencher-CACCTGGGGGAGTATTGCGGAGGAAGG + anchor), 100 nM annealed; ATP concentration: 500 uM; one replicate
# In short: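 The quencher-labelled ATP aptamer, at 100 nM, was annealed to Cy3-labelled switching-strand clusters on a modified Illumina MiSeq flow-cell. The clusters were imaged in selection buffer, then after 15 min with 500 uM ATP at 22 °C, and this buffer/ATP cycle ran five times with NaOH stripping and re-annealing between runs. Per-cluster fluorescence ratios, summed target-cycle over summed buffer-cycle Cy3 intensity, were averaged per switch-domain sequence. Clusters outside 100-1000 RFU were excluded.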
# 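Further: ATP exposure 15 min at 22 °C before imaging.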
row,Sequence,switch fluorescence ratio
1,CAATGCACGT,1.01
2,CAATGCAGT,0.982
3,CAATGCCAAG,1.16
4,CAATGCGGAA,1.04
5,CAATGCGTAA,1.06
6,CAATGGACG,0.982
7,CAATGGCTAC,1.22
8,CAATGGTGCA,1.04
9,CAATGTAGCA,1.04
10,CAATGTCATC,0.947
11,CAATGTCCGT,1
12,CAATGTGAT,0.988
13,CAATGTTTCT,0.953
14,CAATTATTTA,1.01
15,CAATTCGGTA,1
16,CAATTCTAGA,0.947
17,CAATTCTTCA,1.04
18,CAATTCTTGG,1.03
19,CAATTGCGG,0.935
20,CAATTGGTG,1.02
21,CAATTTGAAC,0.963
22,CAATTTGTTC,1.01
23,CAATTTTGTT,1.02
24,CACAAAACAC,1.08
25,CACAAGCTTC,1.17
26,CACAAGGGTT,1.17

row,Sequence,switch fluorescence ratio
1,CACAAGTCAA,1.06
2,CACAATAACA,1.05
3,CACAATGGA,1.04
4,CACACCAGGT,3.97
5,CACACCCACT,1.2
6,CACACCCCTA,1.37
7,CACACCGTGA,1.02
8,CACACGCGTC,1.1
9,CACACTGACC,1.23
10,CACAGAAAAA,0.991
11,CACAGAGTAC,1.03
12,CACAGCGAAT,1.14
13,CACAGCGTAT,1.06
14,CACAGGCTAG,1.01
15,CACAGGGTAC,1.1
16,CACATACCGG,1.34
17,CACATACGGT,1.56
18,CACATCTCTT,1
19,CACATGGCTT,0.977
20,CACATTACAC,1.33
21,CACATTCAAG,1.06
22,CACCAACGAC,1.29
23,CACCAACGT,1.39
24,CACCAGAGTC,1.09
25,CACCAGCAGG,1.08
26,CACCAGGC,1.18

row,Sequence,switch fluorescence ratio
1,CACCAGTGGT,1.05
2,CACCATGCGG,0.933
3,CACCCGAATA,1.18
4,CACCCGGGGA,1.14
5,CACCCTGGCG,1.16
6,CACCCTTAAA,1.03
7,CACCGCCAG,1.33
8,CACCGGCCCC,1.1
9,CACCGGGGAC,1.17
10,CACCGTAAAT,1.47
11,CACCGTCCTG,1.05
12,CACCTACTTA,1.27
13,CACCTCTGCA,4.22
14,CACCTTTATA,1.02
15,CACGAAGGTT,0.966
16,CACGACTTCT,1.03
17,CACGAGGCTG,1.02
18,CACGCCGTTC,1.05
19,CACGCGGACC,1.4
20,CACGCTTAGG,1.01
21,CACGGCACCG,1.24
22,CACGGCACCT,1.69
23,CACGGCAGGC,1.23
24,CACGGCGCAA,0.848
25,CACGGCGGGG,0.986
26,CACGGCTTTG,1.02

row,Sequence,switch fluorescence ratio
1,CACGGGATCC,0.99
2,CACGGGCTAT,1.01
3,CACGGGGCTC,1.06
4,CACGGGGTTC,1.03
5,CACGGGTTTA,0.971
6,CACGGTGTAC,1.34
7,CACGGTTAAT,1.07
8,CACGGTTGT,1.02
9,CACGTCAGGA,1.05
10,CACGTCGGTT,0.973
11,CACGTGACCA,1.19
12,CACGTGTGAT,1.03
13,CACGTTTTG,0.993
14,CACTAAAATA,1.09
15,CACTAACTTG,1.04
16,CACTAATACG,1.15
17,CACTAATCGA,1.03
18,CACTAATGCT,1.01
19,CACTACAGTC,1.01
20,CACTAGCAGA,1.03
21,CACTATGCGA,1.2
22,CACTCAGGGG,1.32
23,CACTCCATAT,1.3
24,CACTCCTGTT,1.01
25,CACTCGTACT,1.19
26,CACTCGTTTA,0.976

row,Sequence,switch fluorescence ratio
1,CACTCTACCT,1.32
2,CACTGAGTAC,0.968
3,CACTGATGTG,0.991
4,CACTGCAG,1.01
5,CACTGCAGAG,1.03
6,CACTGGTAAT,1.03
7,CACTGTGTAG,1.01
8,CACTTAAAA,1.03
9,CACTTAAGAT,0.988
10,CACTTACATA,1.26
11,CACTTATTTG,0.976
12,CACTTCTAAC,1.09
13,CACTTTTT,1.04
14,CACTTTTTCT,1.02
15,CAGAAACCGG,1.01
16,CAGAAACTCG,0.984
17,CAGAACAAAT,1.05
18,CAGAACAATA,1.06
19,CAGAACGAGG,1.03
20,CAGAAGAGGG,0.978
21,CAGAAGAGTT,0.98
22,CAGAAGTTCA,1.04
23,CAGAATGGGC,0.985
24,CAGACCCGTC,0.994
25,CAGACCGACT,1.04
26,CAGACCGGGA,1.07

row,Sequence,switch fluorescence ratio
1,CAGACGAGCA,1.29
2,CAGACGGACC,1.38
3,CAGACTAAAG,1.01
4,CAGAGCATTC,2.59
5,CAGAGCCACA,1.04
6,CAGAGCCCCG,1
7,CAGAGGAACA,1
8,CAGAGTTGCC,1.05
9,CAGATGCTAA,1.02
10,CAGATGTGTA,1.01
11,CAGATTATTC,1.01
12,CAGATTCGTC,0.995
13,CAGCAAAATT,1.09
14,CAGCAATCGC,3.22
15,CAGCACCCGC,1
16,CAGCAGGACA,1.18
17,CAGCATATCC,2.08
18,CAGCCCATCT,0.987
19,CAGCCGGGCG,0.979
20,CAGCCTTCGC,1.17
21,CAGCGAAGGG,1
22,CAGCGCTCGA,0.992
23,CAGCGGGGCT,1.01
